Measured values reported in the supplement of paper PMC9174493.
The list shows a part of the results. Single values of this set are uncertain. Values with irradiation are relative to irradiated vehicle.

system: A549-Dual; test: NF-kB reporter (SEAP) activity, viability-corrected, relative to vehicle (fold change vs vehicle); higher = more activation of STING-IRF / NF-kB immune response reporter; conditions: 10 µM; irradiation: none
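Further: viability correction based on the alamar blue assay, with concentrations leaving 10% survival or less dropped.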

Compound | NF-kB reporter
CCOC(=O)C1=C(C)NC(C)=C(C(=O)OCC)C1c1ccccc1/C=C/C(=O)OC(C)(C)C [Lacidipine] | 0.697
C=C1C(=O)OC2/C=C(\C)CC/C=C(\C)CCC12 (stereo unspecified) [Costunolide] | 0.449
COC(=O)CCc1ccc(OCC(O)CNC(C)C)cc1.Cl (stereo unspecified) [Esmolol HCl] | 1.23
CC(=O)NC(CC(C)C)C(=O)O (stereo unspecified) [Acetylleucine] | 0.784
COc1ccc(CN2CCN(C(c3ccc(F)cc3)c3ccc(F)cc3)CC2)c(OC)c1OC.Cl.Cl [Lomerizine 2HCl] | 0.686
CCCCCCCCCCCC(=O)O [Lauric Acid] | 0.955
CC(=O)OC/C=C/c1ccccc1 [Cinnamyl acetate] | 1.33
NC12CC3CC(CC(C3)C1)C2 [Amantadine] | 1.16
NCCC(=O)O [β-Alanine] | 0.689
N[C@H](CO)C(=O)O [(R)-Serine] | 1.04
CC(/C=C1\SC(=S)N(CC(=O)O)C1=O)=C\c1ccccc1 [Epalrestat] | 1.09
CC(COc1ccccc1)N(CCCl)Cc1ccccc1.Cl (stereo unspecified) [Phenoxybenzamine HCl] | 0.959
C=C=CCNC(=O)c1ccc(F)cc1 [Diastase] | 0.633
Cc1nnc(NS(=O)(=O)c2ccc(N)cc2)s1 [Sulfamethizole] | 0.914
O=C(O)CCCCCCCCC(=O)O [Sebacic acid] | 0.921
CC1OC1P(=O)(O)O.NC(CO)(CO)CO (stereo unspecified) [Fosfomycin Tromethamine] | 0.905
